Assay results published in PubChem BioAssay AID1240 (Sanford-Burnham Center for Chemical Genomics, 2008).
About 800 (1.6%) of roughly 50,000 compounds showed an effect of 50% or more. The list shows a part of the results.

molecular target: Bcl-2-like protein 10 (Homo sapiens) (UniProt Q9HD36); assay: Phenotype converters, Bcl-B/TR3 peptide binding displacement, primary biochemical FP (AID 1240); settings: GST-Bcl-B / FITC-TR3 peptide fluorescence polarization; stronger effect = higher value; compound at 3.75 mg/L;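 further: 0% = Bcl-B with tracer peptide and DMSO and 100% = tracer peptide lacking Bcl-B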
Sequence of UniProt Q9HD36 (Q9HD36 whole entry, looked up): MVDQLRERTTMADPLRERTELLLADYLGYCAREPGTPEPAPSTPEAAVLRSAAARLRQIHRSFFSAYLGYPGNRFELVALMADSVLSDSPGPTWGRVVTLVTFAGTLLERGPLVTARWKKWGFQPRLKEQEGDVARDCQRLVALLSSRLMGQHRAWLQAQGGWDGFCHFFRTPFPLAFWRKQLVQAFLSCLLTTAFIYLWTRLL

Row | Structure (SMILES) | displacement [%]
1 | C/C(=N/NC(=O)c1ccc2c(c1)OCO2)c1ccc(Br)s1 | 4.2
2 | CC(=O)c1cccc(NC(=O)/C(=C\c2ccco2)NC(=O)c2cccs2)c1 | -3.7
3 | Cc1ccc(O)c(/C=N/n2cnnc2)c1 | 29.6
4 | CC(C)(C)c1cc(O)c(S(N)(=O)=O)c(C(C)(C)C)c1 | -10.5
5 | COc1cc(-c2nc(-c3ccccc3)c(-c3ccccc3)[nH]2)cc(OC)c1OC | 10.8
6 | COc1ccc(C(=O)N/C(=C/c2ccc(OCCOc3ccccc3OC)cc2)C(=O)NCC2CCCO2)cc1 (stereo not drawn) | 5.4
7 | COc1ccc(/C(O)=C2\C(=O)C(=O)N(CCCO)C2c2ccc(Br)cc2)cc1 (stereo not drawn) | -6.7
8 | COc1ccc(/C=C2/C(=O)N(c3ccccc3)N=C2C)c(OC)c1OC | 15.4
9 | O=C1Nc2ccccc2C1(O)c1c[nH]c2ccccc12 (stereo not drawn) | 7.4
10 | CC(/C=C1\SC(=S)N(c2cccc(Br)c2)C1=O)=C\c1ccccc1 | 11
11 | Cc1ccc(OCCCn2ccnc2)cc1C | 4.7
12 | O=C(Nc1ccc(Cl)c(C(F)(F)F)c1)c1cccs1 | -5.7
13 | Cc1ccc(C(=O)Nc2ccc(Cc3ccncc3)cc2)cc1[N+](=O)[O-] | -1.5
14 | O=C(c1cc(-c2ccccc2)nc2ccccc12)N1CCCc2ccccc21 | 3.8
15 | O=c1[nH]c(N/N=C/c2cccs2)nnc1-c1ccccc1 | -1.6
16 | Cc1ccc(C(=O)/C=C2\C(=O)Nc3ccccc32)cc1 | 6.7
17 | Cc1nnc(NS(=O)(=O)c2c(C(C)C)cc(C(C)C)cc2C(C)C)s1 | 3.7
18 | Cc1ccccc1NC(=O)C1C2CC/C=C\CC/C=C/CCC21 (stereo not drawn) | -9.6
19 | CSc1nnc2c(n1)OC(c1cccc(C)n1)Nc1ccccc1-2 (stereo not drawn) | 7.2
20 | CC(C)(C)c1ccc(OCC(=O)N2CCC(C(N)=O)CC2)cc1 | -6
21 | Cc1ccc(NC(=O)/C=C/c2ccco2)cc1C | -4.7
22 | O=C1C(=O)N(c2cccc(C(F)(F)F)c2)C(c2ccccc2[N+](=O)[O-])/C1=C(/O)c1ccccc1 (stereo not drawn) | -0.3

Row | Structure (SMILES) | displacement [%]
23 | CN(C)CCN1C(=O)C(=O)/C(=C(/O)c2ccccc2)C1c1ccc([N+](=O)[O-])cc1 (stereo not drawn) | -8
24 | O=S(=O)(c1ccc(Cl)cc1)N1CCN(Cc2ccc3c(c2)OCO3)CC1 | 1.9
25 | COc1ccc(C(=O)Nc2ccc(S(=O)(=O)N3CCCC3)cc2)cc1I | -4.4
26 | O/N=C/c1ccccc1OCc1ccccc1 | -9.7
27 | COC(=O)C1=C(O)/C(=C\c2c(F)cccc2Cl)N=C1C | 4.6
28 | Cc1ccc(N2C(=O)NC(=O)/C(=C\c3ccc(O)c(Br)c3)C2=O)cc1 | 3.6
29 | Nc1cccc(NC(=O)c2ccco2)c1 | 9.7
30 | COc1cc(C(=S)N2CCOCC2)cc(OC)c1OC(=O)CCc1ccccc1 | 9.7
31 | O=c1/c(=C/c2ccc(-c3ccc(Cl)cc3Cl)o2)sc2nc3ccccc3n12 | -1.7
32 | COc1cc(/C=C(\C#N)c2nc3ccc(C)cc3[nH]2)cc(OC)c1OC(C)=O | -4.6
33 | Cc1ccc2nc(-c3ccc(-c4ccccc4)cc3)oc(=O)c2c1 | -10.3
34 | C(=C\c1ccccc1)/CN1CCN(c2ncnc3c2cnn3-c2ccccc2)CC1 | -2
35 | COc1ccccc1CNC(=O)c1ccc(NC(C)=O)cc1 | -5.3
36 | CCOCCOC(=O)C1=C(C)N(C)C(=O)NC1c1cccc([N+](=O)[O-])c1 (stereo not drawn) | -1.2
37 | Cc1c(NC(=O)COc2ccc(Cl)cc2)cccc1[N+](=O)[O-] | 6.5
38 | O=[N+]([O-])c1cccc(S(=O)(=O)NCc2ccco2)c1 | 0.5
39 | Cc1c(C(=O)N2CCN(c3ccccn3)CC2)cccc1[N+](=O)[O-] | 2.7
40 | COc1ccc(C2CC(C(F)(F)F)n3nc(C(=O)O)cc3N2)cc1OC (stereo not drawn) | 2.4
41 | Cc1cc(/C=C2/SC(=S)NC2=O)c(-c2ccccc2)n1-c1ccccc1 | 0.7
42 | N#CC1=C(Nc2ccc(Cl)cc2)CCC1 | 1.3
43 | COc1ccc(/C=C(\NC(=O)c2ccccc2)C(=O)NCC(C)C)cc1 | 9.7
44 | Cn1c(NC(=O)c2cc(-c3ccc(Br)cc3)nc3ccccc23)cc(=O)n(C)c1=O | -10

Row | Structure (SMILES) | displacement [%]
45 | CC1CC(Nc2ccccc2)c2ccccc2N1C(=O)COc1ccc(Cl)cc1 (stereo not drawn) | 9.1
46 | O=c1oc2cc(OCc3c(F)cccc3Cl)c(Cl)cc2c2c1CCC2 | 10.9
47 | CCOc1cc(/C=C2\SC(=S)NC2=O)ccc1OC(C)=O | 12
48 | Cc1ccc2oc(-c3cccc(NC(=O)COc4ccc(Cl)c(C)c4)c3C)nc2c1 | 6.9
49 | COc1ccccc1/C=C1\SC(=S)N(c2ccc(F)cc2)C1=O | 13.3
50 | COc1ccc(Br)cc1C(=O)Nc1ccc2c(c1)oc1ccccc12 | 5.6
51 | O=C1CC(N2CCN(c3ncccn3)CC2)C(=O)N1c1ccc(I)cc1 (stereo not drawn) | -7.9
52 | COc1ccc(-n2nc3cc(C)c(NC(=O)COc4ccc(Cl)c(C)c4)cc3n2)cc1 | 5.3
53 | CC(C)Oc1ccccc1NS(=O)(=O)c1ccccc1[N+](=O)[O-] | 7.9
54 | O=C(Cc1c[nH]c2ccccc12)N/N=C/c1cccc(F)c1 | 5.3
55 | COc1ccc(C(=O)N2CCN(Cc3cccc(OC)c3OC)CC2)cc1OC | -8
56 | COc1ccc(N(CC(=O)Nc2cccc(C)c2)S(C)(=O)=O)c(OC)c1 | 4.5
57 | O=C(/C=C/c1ccc2c(c1)OCO2)Nc1ccccc1F | 5.4
58 | COC(=O)C(=CC(C(=O)OC)C(=O)OC)C(=O)OC | 16.9
59 | CS(=O)(=O)N(CC(=O)O)c1ccccc1F | 10.2
60 | CCCc1cc(=O)oc2cc(OCC(=O)c3ccccc3)ccc12 | 3.6
61 | COc1ccc(OC)c(NC(=O)C2CC(=O)N(c3ccc(Br)cc3)C2)c1 (stereo not drawn) | -4
62 | C=CCN(c1ccc(C(=O)O)cc1)S(=O)(=O)c1ccc(NC(=O)OC)cc1 | -14.8
63 | CC(=O)CCc1oc2ccc(C)cc2c1Cc1ccccc1 | -3.3
64 | COc1ccc(-c2cc(-c3ccccc3)nc(N3CCCCC3)n2)cc1 | -11.3
65 | Cc1cc(OCC(=O)Nc2cccc3nsnc23)ccc1Cl | 38.2
66 | CNC1(c2ccc(OC)cc2)Oc2ccccc2C(C#Cc2ccccc2)=C1C (stereo not drawn) | 1.6

Row | Structure (SMILES) | displacement [%]
67 | Cn1c(/C=C(/OC(=O)c2ccc(F)cc2)c2ccc(F)cc2)nc2ccccc21 | -7.7
68 | O=C(Nc1ccc(Br)cc1)c1ccccc1F | 11.9
69 | COc1cccc(/C=C2\SC(=S)N(NC(=O)c3cccnc3)C2=O)c1 | -5.8
70 | CCOc1ccccc1NC(=O)c1c(NC(=O)COc2ccccc2)sc2c1CCC2 | -6.5
71 | COc1ccc(/C=C/C(=O)Nc2ccccc2C(F)(F)F)cc1Br | 11.9
72 | CCCOc1ccc(/C=C2/C(=O)NC(=O)N(c3ccc(OCC)cc3)C2=O)cc1OC | -20.1
73 | N/C(=N/OC(=O)c1ccccc1I)c1nonc1N | -16.3
74 | CC(=O)Nc1ccccc1NC(=O)COc1cccc2ccccc12 | -0.3
75 | O=C(CCc1ccccc1)Nc1nc(-c2ccc(Cl)c(Cl)c2)cs1 | -5.1
76 | CC(C)n1c(C(O)c2ccc(OCc3ccccc3)cc2)nc2ccccc21 (stereo not drawn) | -19.8
77 | Cc1ccc(/C=N\NC(=O)c2ccc(O)cc2)cc1 | 5.9
78 | N#C/C(=C/c1ccccc1[N+](=O)[O-])C(=O)Nc1cccc(Br)c1 | -4.9
79 | Cn1c(-c2ccc(-c3nc4cnccc4n3C)cc2)nc2cnccc21 | -0.9
80 | Cc1cc(/C=C2\C(=O)NC(=S)N(c3ccccc3F)C2=O)c(C)n1-c1cccc([N+](=O)[O-])c1 | 43.6
81 | O=C(COc1ccc(Br)cc1)N/N=C/c1ccco1 | -1.2
82 | O=C(/C=C/c1ccc2c(c1)OCO2)c1ccc(Br)cc1 | 10.7
83 | COc1ccccc1CNC(=O)COc1ccc(C)cc1Br | -6.1
84 | Cc1ccc(CN2CCN(N=Cc3cc(Br)ccc3O)CC2)c(C)c1 | -5.8
85 | COCCCNC(=O)CN(c1ccc(C)c(Cl)c1)S(C)(=O)=O | -2.2
86 | O=C(Nc1ccc(NC(=O)c2ccccc2[N+](=O)[O-])cc1)c1ccccc1 | -7.4
87 | COC(=O)c1ccc(COc2cc3oc(=O)c4c(c3cc2Cl)CCC4)cc1 | 7.8
88 | CCOCCOC(=O)c1ccc(NC(=O)c2ccccc2C)cc1 | -9.3

Row | Structure (SMILES) | displacement [%]
89 | CCOC(=O)c1ccc2c(c1)C1C=CCC1C(c1cccc([N+](=O)[O-])c1)N2 (stereo not drawn) | -1
90 | COc1ccc(C(=O)Nc2ccc(O)c(-c3nc4ccccc4s3)c2)cc1[N+](=O)[O-] | -6.2
91 | CNC(=O)C(=O)Nc1cccc(Cl)c1 | 19.4
92 | O=c1/c(=C\c2ccc(F)cc2)sc2nc(-c3ccc(Cl)cc3Cl)nn12 | 18.3
93 | Cc1ccc(S(=O)(=O)NCc2cccnc2)c(C)c1 | 5.4
94 | O=[N+]([O-])c1cc2c(cc1C=Nc1ccc(OC(F)(F)F)cc1)OCO2 | 19.3
95 | COC(=O)c1c(NC(=O)c2cccc(OC)c2)sc(C)c1C | -0.8
96 | Cc1ccc(C(=O)O/N=C(\N)Cc2ccc(Cl)cc2Cl)cc1[N+](=O)[O-] | 3.8
97 | O=C(/C=C/c1cccc(C(F)(F)F)c1)Nc1ccccc1[N+](=O)[O-] | 7
98 | COc1ccc(C2CC(C(F)(F)F)n3nc(C(=O)Nc4cc(C)ccc4O)cc3N2)cc1 (stereo not drawn) | -1.9
99 | S=C(NCCN1CCOCC1)Nc1ccc(Cl)cc1Cl | -2.7
100 | COc1cc([N+](=O)[O-])ccc1-c1ccc(/C=C(/C#N)C(=O)Nc2cccc(Br)c2)o1 | 92.4
101 | COc1ccc(/C=C(/NC(=O)c2ccccc2)c2nc3ccc(C(F)(F)F)cc3[nH]2)cc1OC | -23.8
102 | COc1ccc(-c2csc(N)c2C(=O)OC(C)C)cc1OC | -0.7
103 | Cc1cccc(NC(=O)C(=O)NCc2ccccc2Cl)c1C | 15.9
104 | CC(C)(C)c1ccc(OCC(=O)Nc2cccc(C(=O)Nc3nccs3)c2)cc1 | 6.7
105 | O=C1OC(c2ccc(Cl)cc2)=C/C1=C\c1cccc([N+](=O)[O-])c1 | 3.5
106 | Cc1cccc(C=Nc2ccc(-c3nc4ccc(C)cc4s3)cc2)c1 | -2.2
107 | Cc1cccc(OCC(=O)N/N=C/c2cccn2-c2ccc([N+](=O)[O-])cc2)c1 | 8.3
108 | COc1cc(/C=C2\C=C(c3ccc(Cl)cc3)OC2=O)c([N+](=O)[O-])cc1OC | -11.8
